# Test results taken from publication PMC4336329 (PLoS ONE, 2015).
# Out of some 310,000 compounds screened, about 2,200 (0.71%) showed an effect of 50% or more. Effects have a minus sign here. This is one part of the list.
# Biological target: human ether-à-go-go-related gene (hERG) potassium channel (human, UniProt Q12809)
# Assay: primary screen, population patch clamp on CHO cells stably expressing hERG
# Sequence of human ether-à-go-go-related gene (hERG) potassium channel (Q12809 whole entry, looked up): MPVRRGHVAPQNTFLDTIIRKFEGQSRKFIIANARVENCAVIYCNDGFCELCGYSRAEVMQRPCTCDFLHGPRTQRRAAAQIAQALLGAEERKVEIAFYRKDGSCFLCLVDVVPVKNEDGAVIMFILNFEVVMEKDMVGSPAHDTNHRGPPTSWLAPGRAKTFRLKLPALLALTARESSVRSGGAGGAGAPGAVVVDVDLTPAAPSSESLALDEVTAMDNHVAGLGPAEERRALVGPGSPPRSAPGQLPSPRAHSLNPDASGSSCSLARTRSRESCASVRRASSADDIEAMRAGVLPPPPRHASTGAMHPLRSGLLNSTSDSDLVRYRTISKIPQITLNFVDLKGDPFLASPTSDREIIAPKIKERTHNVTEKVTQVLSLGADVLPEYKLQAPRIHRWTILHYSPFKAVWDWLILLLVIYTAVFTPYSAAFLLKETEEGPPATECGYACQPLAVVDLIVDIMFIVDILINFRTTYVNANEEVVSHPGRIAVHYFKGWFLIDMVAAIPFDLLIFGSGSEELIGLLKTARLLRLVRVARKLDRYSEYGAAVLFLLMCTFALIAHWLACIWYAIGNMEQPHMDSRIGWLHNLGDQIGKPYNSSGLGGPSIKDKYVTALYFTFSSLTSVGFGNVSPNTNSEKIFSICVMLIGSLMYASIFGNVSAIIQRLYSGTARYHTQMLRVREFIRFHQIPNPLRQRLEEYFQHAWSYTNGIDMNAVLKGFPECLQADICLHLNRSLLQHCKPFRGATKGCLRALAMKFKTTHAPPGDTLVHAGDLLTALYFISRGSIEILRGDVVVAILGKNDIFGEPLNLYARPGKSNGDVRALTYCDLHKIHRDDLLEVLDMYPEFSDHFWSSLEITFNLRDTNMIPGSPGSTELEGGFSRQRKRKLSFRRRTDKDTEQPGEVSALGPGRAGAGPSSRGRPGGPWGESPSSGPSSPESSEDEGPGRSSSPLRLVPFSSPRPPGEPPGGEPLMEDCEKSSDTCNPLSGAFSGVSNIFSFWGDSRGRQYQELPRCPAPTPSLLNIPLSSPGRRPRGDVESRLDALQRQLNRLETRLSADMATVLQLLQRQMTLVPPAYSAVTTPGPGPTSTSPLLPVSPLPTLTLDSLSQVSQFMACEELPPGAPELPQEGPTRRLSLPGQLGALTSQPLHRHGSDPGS
row,SMILES,"hERG current change (%, negative = inhibition) at 1uM"
1,Cc1ccc(CCC(=O)Nc2ccc(CC(=O)O)cc2)o1,13.4%
2,NNC(=O)c1cc(Cl)ccc1Cl,15.5%
3,CCOc1ccc(-n2c(=O)c3sccc3n(Cc3ccc(C)cc3)c2=O)cc1,8.82%
4,COc1ccc(OC)c(C(c2nnnn2C(C)(C)C)N2CCc3ccccc3C2)c1.Cl (centres unmarked),6.42%
5,CCC(C)(C)n1nnnc1C(c1cccs1)N1CCN(Cc2ccccc2)CC1 (centres unmarked),2.67%
6,Cc1ccc(S(=O)(=O)NC(CC(N)=O)C(=O)O)cc1 (centres unmarked),7.9%
7,CCOC(=O)c1oc2ccccc2c1NC(=O)c1ccc2c(c1)OCO2,6.17%
8,CC(C)(Sc1ccc(CCN(CCCCC2CCCCC2)C(=O)NC2CCCCC2)cc1)C(=O)O,11.4%
9,CN(C)/C=N/c1sccc1C(N)=O,6.32%
10,Cc1ccc(C(=O)N2CCC3(CC2)Oc2ccc(Cl)cc2C(=O)C32CC(c3ccc(Cl)cc3)=NO2)s1 (centres unmarked),11.5%
11,CC(=O)c1cccc(NC(=O)C(=O)c2cn(CC(=O)N3CCCCC3)c3ccccc23)c1,-5.28%
12,CCOC1=NS(=O)(=O)c2ccccc21,6.24%
13,O=[N+]([O-])c1ccc(CSc2nc3ccccc3[nH]2)cc1,-0.0232%
14,CC1CCCC(C)N1C(=O)CSc1nnc(COc2cccc3cccnc23)o1 (centres unmarked),11.3%
15,Cc1ccc(NC(=O)CSc2nnc(NC(=O)C3CC3)s2)cc1,16.7%
16,COc1ccc(NC(=O)c2cc(-c3cc(OC)c(OC)c(OC)c3)nc3ccccc23)cc1OC,11.1%
17,Cc1cc(Cl)cc(Cl)c1OCCOCCN(C)C.O=C(O)C(=O)O,3.77%
18,O=C(O)c1cccc(NC(=O)c2ccc(COc3ccc(Cl)cc3)cc2)c1,10%
19,C/C(=N\NC(N)=O)C1(C)CCCCC1,5.86%
20,O=C(N/N=C/c1ccco1)C1CC1,10.8%
21,Cc1ccc(S(=O)(=O)N(C)C)cc1NC(=S)NCCc1ccccn1,17.5%
22,Cc1c(C(=O)NCC(C)C)sc2nc(-c3ccc(F)cc3)cn12,0.013%
23,COc1cc(C(=O)NC2CCN(CC(=O)NC3CCCCC3C)CC2)cc(OC)c1OC (centres unmarked),8.93%

row,SMILES,"hERG current change (%, negative = inhibition) at 1uM"
1,CCOC(=O)N1CCN(S(=O)(=O)c2ccc(OCC)c(C)c2)CC1,-0.526%
2,COc1ccccc1N1CCN(C(=O)CSc2nc(N)cc(=O)[nH]2)CC1,4.68%
3,COc1ccc(C(=O)CC2SC(N)=NC2=O)cc1 (centres unmarked),13.6%
4,Cc1ccc(OCCN2CCN(C(=O)CCC(=O)Nc3nnc(CC(C)C)s3)CC2)cc1,-5.91%
5,O=C1NC(=O)N(c2cccc(F)c2)C(=O)/C1=C/c1ccc(N2CCOCC2)cc1,12%
6,COc1cc(SC)ccc1C(=O)NNC(=O)c1cc(C)oc1C,14.7%
7,CCOCC(=O)Nc1ncc(S(=O)(=O)c2ccc([N+](=O)[O-])cc2)s1,2.86%
8,COc1ccc(CC(=O)N2CCOCC2)cc1,2.04%
9,CCc1ccccc1N(C(=O)CCC(=O)Nc1cc(C)on1)C(C(=O)NC1CCCC1)c1ccco1 (centres unmarked),0.765%
10,CC(C)C1Oc2cc3oc(=O)ccc3cc2C1=O (centres unmarked),-8.41%
11,CC(C)(C)n1ncc2c(=O)n(CC(=O)N3CCCCCC3)cnc21,11.2%
12,CCC(C)(C)n1nnnc1C(c1cccs1)N1CCc2ccccc21 (centres unmarked),7.92%
13,CCN1C(=O)c2cccc3c(N)ccc1c23,-2.01%
14,COc1ccc(OC)c2[nH]c(=O)c(CCNC(=O)c3cccs3)cc12,-2.67%
15,COc1ccc(C(=O)NCc2ncccc2C)cc1OC1CCN(C(C)=O)CC1,15.7%
16,Cc1ccnc(NC(=O)CNC(=O)c2ccccc2)c1,-2.38%
17,COc1ccc(CCCNC(=O)C2CCC(=O)N(CC3CCCCC3)C2)cc1 (centres unmarked),10.4%
18,C=CCNC(=S)N/N=C(\C)c1cccc(NC(C)=O)c1,11%
19,Cc1cc(=O)n2nc(N3CCCC(C(=O)NCCc4ccccc4)C3)sc2n1 (centres unmarked),-2%
20,O=C(NCc1ccccc1)c1cc2nc(C3CC3)cc(C(F)(F)F)n2n1,-1.13%
21,CC(C)C(NS(=O)(=O)c1cccc2nsnc12)C(=O)Nc1nc2ccc(Cl)cc2s1 (centres unmarked),12.8%
22,COCC(=O)NCCNc1nc2ccc(C)cc2cc1C,1.14%
23,CCOc1ccc(C(=O)OC2CCN(C)CC2)cc1.Cl,-2.21%

row,SMILES,"hERG current change (%, negative = inhibition) at 1uM"
1,Cn1c(=O)cc(OCCCC(=O)Nc2cccnc2)c2ccccc21,6.83%
2,Cc1c(N2C(=O)c3ccc(Br)cc3C2=O)c(=O)n(-c2ccccc2)n1C,14.3%
3,O=C(N/N=C/c1cccc(O)c1)c1cc2c(ccc3ccccc32)o1,13%
4,COc1ccc(NC(=S)N2CCC(N(C)CC3CCCO3)CC2)cc1Cl (centres unmarked),1.77%
5,O=C(NC(=S)Nc1nc(-c2cccc([N+](=O)[O-])c2)cs1)c1cc(Cl)ccc1Cl,10.8%
6,Cc1nn(-c2ccccc2)c(C)c1/C=N\N1CCN(c2ccc(Cl)cc2)CC1,3.06%
7,CCN(CC)C(=O)c1[nH]cnc1C(=O)NCC(=O)OCc1ccccc1,13.6%
8,CC(C)CN1C(=S)SC(C)(C)C1n1oc(=O)n(-c2ccccc2)c1=O (centres unmarked),12.9%
9,CC(C)OC(=O)C(NC(=O)c1ccccc1)=C1CCCCC1,13.5%
10,CC(C)c1nnc(NC(=O)CC23CC4CC(CC(C4)C2)C3)s1,6.98%
11,COC(=O)c1cc(NCc2ccc3c(c2)OCO3)ccc1N1CCOCC1,-6.45%
12,COc1ccc(CCNC(=O)CCc2ccsc2)cc1OC,14.4%
13,CCCCn1c(SCC(=O)c2ccc(OC)cc2OC)nc2cc(S(N)(=O)=O)ccc21,11.7%
14,COc1cc2c(cc1OC)CN(Cc1ccccc1)CC2,13.6%
15,Cc1nc2sc(C(=O)OCC(=O)N3c4ccccc4CC3C)c(C)c2c(=O)[nH]1 (centres unmarked),12.5%
16,N#C/C(=C\c1c(N2CCCCCC2)nc2ccccn2c1=O)C(=O)NCc1ccco1,2.14%
17,O=C1Nc2ccc(C(F)(F)F)cc2N2CCCC12 (centres unmarked),12.8%
18,COc1ccccc1C(=O)N1CCN(C(=O)c2oc3ccc(C)cc3c2C)CC1,9.2%
19,N#Cc1ccc(N2CCNCC2)c(F)c1,-2.47%
20,CCc1nc(NCCN2CCOCC2)c(C#N)c2c1CCCC2,-19.7%
21,CCn1c(CSc2nc3ccccc3s2)nc2ccccc21,6.52%
22,CSc1nsc(SCC(=O)Nc2ccccc2C(=O)O)n1,10.5%
23,Cc1occc1C(=O)Nc1ccc2c(c1)OCCO2,-8.12%

row,SMILES,"hERG current change (%, negative = inhibition) at 1uM"
1,O=C(O)CC(=O)Nc1cc(Cl)ccc1O,6.94%
2,Cc1nn(S(=O)(=O)N2CCCCC2)c(C)c1Br,15.6%
3,OCC[C@@H]1C[C@H](O)[C@@H](O)[C@@]2(CCc3ccccc3O2)O1,14.4%
4,CC(=O)N/C(=N/c1nc(C)cc(C)n1)Nc1ccc(C)cc1C,4.11%
5,C/C(=N\NC=O)c1ccncc1,3.11%
6,CC(C)(C)C(=O)C1=C(O)C(=O)N(Cc2ccccc2)C1c1ccccc1Cl (centres unmarked),12.4%
7,Cc1ccc(NC(=O)C2(NC(=O)c3cccc(N4C(=O)CSC4c4ccccc4)c3)CCCCC2)cc1 (centres unmarked),7.52%
8,CC(C)(C)c1ccc(C(=O)CSc2ncn[nH]2)cc1,6.35%
9,CC1(C)NC(=O)N(CC(=O)N2CCCC(C(F)(F)F)C2)C1=O (centres unmarked),5.97%
10,Cc1ccc(C)c(S(=O)(=O)c2c[nH]c(=S)[nH]c2=O)c1,8.25%
11,CCOC(=O)c1c(C)c(C(=O)N2CCC3(CC2)OCCO3)c(C)n1CC,15%
12,COc1ccc(NC(=S)NC(=O)CC(C)C)c(OC)c1,6.32%
13,CCOc1ccc(C2C3=C(Nc4nc(N)[nH]c(=O)c42)c2ccccc2C3=O)cc1 (centres unmarked),-4.6%
14,CCCNC(=S)Nc1ccc(Cl)cc1C,9.67%
15,Cc1ccc(-c2csc(NC(=O)c3cnccn3)n2)cc1C,6.98%
16,O=C(Nc1ccc2c(c1)nc1n2CCSC1)c1ccccc1,-6.73%
17,O=C(CSCc1ccc(F)cc1)Nc1ccccc1C(=O)N1CCOCC1,5.08%
18,Cc1cc(CN(C)C(=O)CC2C(=O)NCCN2Cc2c(F)cccc2Cl)n[nH]1 (centres unmarked),9.39%
19,CC(NC(=O)C1CCN(S(=O)(=O)c2cccs2)CC1)c1cccc(Cl)c1 (centres unmarked),2.19%
20,CCC(CC)C1C(C#N)=C(N)SC(N)=C1C#N,8.44%
21,C[n+]1ccn(CC(=O)c2ccc(Br)cc2)c1.[Br-],5.11%
22,O=C(Cc1ccc(Cl)cc1)Nc1cccc2ncccc12,11.9%
23,CCC1(C(=O)O)NC(c2cc(OC)ccc2O)C2C(=O)N(Cc3ccccc3)C(=O)C21 (centres unmarked),11%
